# Measurements published in PubChem BioAssay AID504832 (National Center for Advancing Translational Sciences (NCATS), 2011).
# The whole screen tested about 310,000 compounds, of which about 18,000 (5.8%) were called active. Inconclusive means that the source gave no clear call. Such entries were picked first, then a sample of the others. Calls follow the shape of the dose curve; as a rule, active = well fitted inhibition curve with a large enough effect; inconclusive = small, poorly fitted or top-dose-only effect, or another doubt; inactive = no such curve, though single readings can be large or run the other way. Potencies of inconclusive entries are left out as doubtful fits.
# Assay: Primary qHTS for delayed death inhibitors of the malarial parasite plastid, 48 hour incubation
# Settings: P. falciparum luciferase growth in erythrocytes; series mostly up to 28.7 µM; activity change, negative = inhibition: at the top concentration
# How it was run: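 Firefly luciferase activity from engineered P. falciparum reports growth; inhibitors lower the luminescent signal. Cultures contained 2% hematocrit erythrocytes at 0.1% final parasitemia.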
# % is scaled to controls: 0 for no effect and ±100 for the full control effect; potency is read from the fitted curve at half-maximal effect; tags tell the direction and shape of the fitted curve.
SMILES,Potency,"activity change, negative = inhibition"
C#CCOCCOCCOCCNc1nc(N2CCOCC2)nc(N2CCN(C(=O)[C@H](Cc3cc4ccccc4[nH]3)n3cc([C@@H](N)Cc4ccc(O)cc4)nn3)CC2)n1,"inconclusive [inhibitor, partial curve, poor fit]",
CCOc1ccc(Cc2nnc(SCC(=O)Nc3ccc(C(C)=O)cc3)[nH]c2=O)cc1,"inconclusive [inhibitor, single point]",
CCCc1ccc(C2=Nn3c(nnc3C(C)C)SC2)cc1,"inconclusive [inhibitor, single point]",
CCOc1ccc(N2CC(C(=O)N3CCCc4ccccc43)CC2=O)cc1 (stereo not drawn),,inactive: 19.9%
O=c1cc(-c2ccccc2)nc2cc(-c3ccco3)[nH]n12,,inactive: 5.91%
COc1ccc(S(=O)(=O)N2CCC3(CC2)OCCN3S(=O)(=O)c2cccs2)cc1OC,"inconclusive [inhibitor, single point]",
CC(=O)OCC(=O)[C@@]1(O)CC[C@H]2[C@@H]3CCC4=CC(=O)CC[C@]4(C)[C@H]3[C@@H](O)C[C@@]21C,"inconclusive [inhibitor, partial curve, poor fit]",
Cc1nn(-c2ccccc2)c(C)c1[N+](=O)[O-],"inconclusive [inhibitor, partial curve, poor fit]",
CC(C)(C)c1ccccc1OCCCCCn1ccnc1,active: 11.7 µM,
CCOc1cc(NS(=O)(=O)c2ccc(Cl)cc2)c(OCC)cc1NC(=O)CC(C)C,"inconclusive [inhibitor, single point]",
CC1(C)CC(=O)C=C(NC2CCCCCC2)C1,"inconclusive [inhibitor, full curve]",
Cc1ccc(C)c(NCC(=O)c2ccc(Cl)cc2)c1,"inconclusive [inhibitor, single point]",
O=C(CNC(=O)C1CCCCC1)OCn1nnc2ccccc2c1=O,,inactive: 2.5%
O=C1c2ccccc2C(=O)C1c1ccc(F)cc1,,inactive: -6.96%
CCOC(=O)CC(=O)NC(CC(=O)OC)c1ccc(C(C)C)cc1 (stereo not drawn),"inconclusive [inhibitor, single point]",
Cc1cccc(NC(=O)CSc2nnc(Cn3nnc(-c4ccccc4)n3)n2-c2ccccc2)c1,"inconclusive [inhibitor, partial curve, poor fit]",
Cc1cccc(-n2[nH]c3c4c(ccc3c2=O)C(=O)c2ccccc2C4=O)c1,,inactive: 9.63%
COc1ccc(/C=C2\SC(=S)N(CCCC(=O)Nc3ccc(O)cc3)C2=O)cc1,"inconclusive [inhibitor, single point]",
CCOc1ccc(-c2csc(NC(=O)CSC3=NC(=O)CN3C(C)=O)n2)c2ccccc12,"inconclusive [inhibitor, single point]",
CC(=O)c1c(C)nc2ccc(Br)cc2c1-c1ccccc1,"inconclusive [inhibitor, full curve, poor fit]",
O=C(NCc1ccncc1)C(=O)N/N=C/c1ccc(OCc2ccccc2)cc1,,inactive: 5.85%
CCOCCCn1c(SCC(=O)Nc2ccccc2)nc2ccccc2c1=O,"inconclusive [inhibitor, partial curve, poor fit]",

SMILES,Potency,"activity change, negative = inhibition"
COc1ccc(-c2cnnc(N/N=C/c3ccc(O)c(OC)c3)n2)cc1,,inactive: -11%
O=C(COC(=O)C1CCC1)NC(=O)c1ccccc1,,inactive: 17.6%
CCCC(c1nnnn1CS(=O)(=O)c1ccc(C)cc1)N1CCN(C2CCCC2)CC1 (stereo not drawn),"inconclusive [inhibitor, partial curve]",
COc1ccccc1/C=C/C=N/n1c(-c2ccc(Cl)cc2)n[nH]c1=S,"inconclusive [inhibitor, full curve, poor fit]",
CCOC(=O)c1ccc(NC(=O)CSc2nnc(-c3cccs3)n2C)cc1,"inconclusive [inhibitor, full curve, poor fit]",
CCOC(=O)c1c(NC(=O)OC)sc2c1CCC2,,inactive: 17.6%
Clc1nc2nc3n(c2nc1Cl)CCC3,,inactive: 51.8%
O=C(Cc1c[nH]c2ccccc12)Nc1ccc(N2CCOCC2)cc1,,inactive: -17.5%
COc1cc(-c2nnc3n(CCc4ccccc4)c(=O)c4ccccc4n23)cc(OC)c1OC,"inconclusive [inhibitor, full curve]",
CCN(CC)c1ccc(NC(=S)Nc2ccc(F)cc2)cc1,"inconclusive [inhibitor, partial curve, poor fit]",
COC(=O)c1cc(NC(=O)CSc2nc(C)cc(=O)[nH]2)cc(C(=O)OC)c1,"inconclusive [inhibitor, partial curve, poor fit]",
CCOC(=O)C1=C(O)/C(=C\c2cccc(OC)c2)N=C1C,"inconclusive [inhibitor, partial curve]",
CCOC(=O)[C@@H]1[C@H]2COc3ccc(Br)cc3[C@@H]2N2C(=O)N(c3ccc(C(F)(F)F)cc3)C(=O)[C@]12C,"inconclusive [inhibitor, full curve]",
COc1ccc2nc(Cl)cc(Cl)c2c1,"inconclusive [inhibitor, single point]",
Cc1ccc(NC(=O)c2cc3c(=O)oc4ccccc4c3s2)nc1,,inactive: -6.5%
Cc1ccccc1NC(=O)C1CCCN1S(=O)(=O)c1ccccc1C(F)(F)F (stereo not drawn),"inconclusive [inhibitor, partial curve]",
Cc1ccc(S(=O)(=O)NCCC(=O)N2CCN(c3cccc(Cl)c3)CC2)cc1C,"inconclusive [inhibitor, single point]",
O=C(Cn1nnc2ccccc2c1=O)NCCc1ccc(Cl)cc1Cl,,inactive: 2.12%
Cc1cc(C(=O)OCC(=O)N2CC(=O)Nc3ccccc32)c(C)n1-c1ccccc1,"inconclusive [inhibitor, partial curve]",
O=C(CSc1nc2cc(Cl)ccc2s1)N1CCCc2ccccc21,"inconclusive [inhibitor, single point]",
O=C1C=C(c2ccc(O)cc2)C[C@@H](c2ccc(Cl)cc2)C1,active: 3.7 µM,
